Values joined by “and” are separate entries in the source; they are usually repeats but may differ in a detail not shown here. Identical values can stand only once. Screen size: about 110,000 compounds; about 230 (0.21%) showed an effect of 50% or more. Some of the results follow.
biological target: DPAP1 (Plasmodium falciparum, UniProt Q8IIJ9); assay: primary screen, percent inhibition; read by cleavage of a fluorogenic dipeptide substrate; higher = more effect of the substance; set-up: species or system P. falciparum D10 trophozoite lysates; single well
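Also: 30 min substrate incubation versus DMSO and 10 µM JCP410 controls.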

DPAP1, sequence (Q8IIJ9 whole entry, looked up): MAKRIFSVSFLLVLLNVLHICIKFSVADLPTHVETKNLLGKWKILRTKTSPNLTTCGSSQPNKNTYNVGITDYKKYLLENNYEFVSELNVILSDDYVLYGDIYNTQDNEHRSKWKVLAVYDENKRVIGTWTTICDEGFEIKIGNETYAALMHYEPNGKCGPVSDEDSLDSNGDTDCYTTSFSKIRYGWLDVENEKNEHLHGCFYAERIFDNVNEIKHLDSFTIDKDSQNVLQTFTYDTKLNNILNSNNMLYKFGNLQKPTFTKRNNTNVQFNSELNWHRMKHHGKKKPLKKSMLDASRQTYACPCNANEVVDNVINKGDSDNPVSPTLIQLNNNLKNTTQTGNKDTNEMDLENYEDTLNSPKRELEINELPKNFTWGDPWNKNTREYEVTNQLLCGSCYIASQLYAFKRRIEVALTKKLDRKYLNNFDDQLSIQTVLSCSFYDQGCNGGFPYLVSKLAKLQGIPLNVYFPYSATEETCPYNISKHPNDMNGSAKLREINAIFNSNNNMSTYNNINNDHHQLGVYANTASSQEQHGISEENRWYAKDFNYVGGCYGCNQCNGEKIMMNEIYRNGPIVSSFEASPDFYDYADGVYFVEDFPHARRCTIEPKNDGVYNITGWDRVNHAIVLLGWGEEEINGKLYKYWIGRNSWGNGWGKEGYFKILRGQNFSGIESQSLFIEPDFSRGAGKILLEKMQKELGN

Q: For Cc1cc(C)nc(NS(=O)(=O)c2cccs2)c1, which “% Inhibition @ 10 uM” value is on record?
A: 2.06%

Q: How did the “% Inhibition @ 10 uM” value turn out when CC(=O)N(C)c1ccc(NC(=O)COc2ccc(Br)c(C)c2)cc1 was run?
A: 2.27%

Q: With Cc1cc(/C=C2/NC(=O)N(c3cccc(Cl)c3)C2=O)c(C)n1-c1ccccn1 as the compound, how does the “% Inhibition @ 10 uM” value read?
A: 1.52%

Q: CCC1(CC)Cc2ccccc2C(N2CCOCC2)=N1 was tested. Which “% Inhibition @ 10 uM” value did it give?
A: 3.99%

Q: Which “% Inhibition @ 10 uM” value does the source give for O=C(NC(=S)Nc1c(Cl)cc(Cl)cc1Cl)c1ccco1 here?
A: -0.0217%

Q: O=C(NCCc1ccccc1)c1ccc(CSc2nc3ccncc3[nH]2)cc1 was tested. Which “% Inhibition @ 10 uM” value did it give?
A: -3.35%

Q: How did the “% Inhibition @ 10 uM” value turn out when CCCSCCCNC(=O)CS(=O)(=O)Cc1nc(-c2ccccc2F)oc1C was run?
A: 4.77%

Q: With NC(=O)c1nn2c(c1Cl)NC(c1ccc(Cl)cc1)CC2C(F)(F)F (stereo not drawn) as the compound, how does the “% Inhibition @ 10 uM” value read?
A: -0.996%

Q: With COc1cc(-c2nnc3sc(Cc4ccccc4)nn23)cc(OC)c1OC as the compound, how does the “% Inhibition @ 10 uM” value read?
A: 2.89%

Q: Cc1[nH]c2ccccc2c1CC/N=C/C1=C(O)CC(c2ccc(F)cc2)CC1=O (stereo not drawn) was tested. Which “% Inhibition @ 10 uM” value did it give?
A: 2.24%

Q: For CCOc1ccc(C2CC(=O)NC(SCC(=O)NC3CCCCC3)=C2C#N)cc1 (stereo not drawn), which “% Inhibition @ 10 uM” value is on record?
A: 30.3%

Q: With CCOC(=O)CSc1nc2cc(C)ccc2[nH]1 as the compound, how does the “% Inhibition @ 10 uM” value read?
A: 0.135%

Q: With CCOc1ccc(N2C(=O)C3CCC(C)CC3C2=O)cc1 (stereo not drawn) as the compound, how does the “% Inhibition @ 10 uM” value read?
A: -2.8%

Q: With Cc1sc(Nc2ccccc2)nc1-c1ccc(Cl)cc1 as the compound, how does the “% Inhibition @ 10 uM” value read?
A: 1.64%

Q: How did the “% Inhibition @ 10 uM” value turn out when COc1ccc(-n2c(Cc3cccn3C)nnc2SCC(N)=O)cc1 was run?
A: 2.74%

Q: With N#Cc1c(N)nc2c(c1-c1ccc(Cl)cc1Cl)CCCCC2 as the compound, how does the “% Inhibition @ 10 uM” value read?
A: 4.67%

Q: With O=C(NC1CCCC1)N(Cc1ccc2c(c1)OCO2)C1CCN(Cc2ccccc2)CC1 as the compound, how does the “% Inhibition @ 10 uM” value read?
A: -1.41%

Q: Cc1nn(-c2ccccc2)c2c1C(c1ccccc1Br)C(C#N)=C(N)O2 (stereo not drawn) was tested. Which “% Inhibition @ 10 uM” value did it give?
A: -2.8%

Q: Which “% Inhibition @ 10 uM” value does the source give for COc1cc2c(cc1OC)C(C(=O)N1CCN(c3ccccn3)CC1)C(c1cccnc1)N(C)C2=O (stereo not drawn) here?
A: -1.31%

Q: For COc1cc(/C=C2\S/C(=N/c3ccc(C(=O)O)cc3)N(C)C2=O)ccc1O, which “% Inhibition @ 10 uM” value is on record?
A: 6.69%

Q: How did the “% Inhibition @ 10 uM” value turn out when CC(=O)N1CCC(N2CCN(c3ccc([N+](=O)[O-])cc3)CC2)CC1 was run?
A: 0.273%

Q: For CCCC(=O)n1nc(-c2ccc(OC)cc2)nc1N, which “% Inhibition @ 10 uM” value is on record?
A: -8.71%

Q: Which “% Inhibition @ 10 uM” value does the source give for CCOc1cc(/C=C2\C(=N)N3C(C)=CSC3=NC2=O)ccc1OCc1ccc2c(c1)OCO2 here?
A: 2.25%

Q: How did the “% Inhibition @ 10 uM” value turn out when Cc1cc(C)nc(NC(=O)C2c3ccccc3Oc3ccccc32)c1 was run?
A: -1.06%

Q: For O=C(Nc1ccc2c(c1)OCO2)C1CC1c1ccccc1 (stereo not drawn), which “% Inhibition @ 10 uM” value is on record?
A: -7.81%

Q: For COc1ccc(OC)c(NC(=O)COc2ccc(Br)cc2)c1, which “% Inhibition @ 10 uM” value is on record?
A: -3.26%

Q: For Cc1cc(-c2ccc(C)c(S(=O)(=O)NCC3CCN(Cc4cccc(F)c4)CC3)c2)on1, which “% Inhibition @ 10 uM” value is on record?
A: -1.05%

Q: With CCc1nnc2sc(-c3ccccc3OC)nn12 as the compound, how does the “% Inhibition @ 10 uM” value read?
A: 0.635%

Q: CCOC(=O)C1=C(CC)OC(N)=C(C#N)C1c1cc(Br)cs1 (stereo not drawn) was tested. Which “% Inhibition @ 10 uM” value did it give?
A: -1.38%

Q: CCSc1nc2sc3c(c2c2nncn12)CCN(C)C3 was tested. Which “% Inhibition @ 10 uM” value did it give?
A: -3.77%

Q: For COc1ccccc1/C=C/C(=O)N1CCCC(c2ccccc2)C1 (stereo not drawn), which “% Inhibition @ 10 uM” value is on record?
A: -0.0829%

Q: For Cc1oc(-c2ccccc2Cl)[n+]([O-])c1C, which “% Inhibition @ 10 uM” value is on record?
A: -5.32%

Q: How did the “% Inhibition @ 10 uM” value turn out when COc1cc(OC)c(OC)cc1CN1CCN(Cc2c[nH]c3ccccc23)CC1 was run?
A: -2.88% and -6.26%

Q: How did the “% Inhibition @ 10 uM” value turn out when CCCc1nc2c3ccccc3nc(NCCc3ccc(Cl)cc3)n2n1 was run?
A: 2.6%

Q: With Cc1oc(-c2ccc(Cl)cc2)nc1CSCC(=O)NCCN1CCOCC1 as the compound, how does the “% Inhibition @ 10 uM” value read?
A: -1.27%

Q: How did the “% Inhibition @ 10 uM” value turn out when COc1ccc(OC)c(NC(=O)c2cccc(OC(F)F)c2)c1 was run?
A: -6.05%

Q: For CC[C@H](NC(=O)[C@@H](O)CS(=O)(=O)Cc1ccccc1OC(F)F)C(=O)c1nc2ccccc2s1, which “% Inhibition @ 10 uM” value is on record?
A: -5.21%

Q: With O=S(=O)(c1ccc(-c2ccccc2)cc1)N1CCSC1c1ccccc1 (stereo not drawn) as the compound, how does the “% Inhibition @ 10 uM” value read?
A: 24.4%

Q: COc1cc(NC(=O)c2ccc(Br)cc2)c(OC)cc1Cl was tested. Which “% Inhibition @ 10 uM” value did it give?
A: -2.63%

Q: How did the “% Inhibition @ 10 uM” value turn out when CCN(CC)CCN(CC)Cc1cccc(C)c1 was run?
A: -2.34%

Q: For C/C(=C\c1ccccc1)CN1CCN(c2ccccc2)CC1, which “% Inhibition @ 10 uM” value is on record?
A: 4.28%

Q: For CC(=O)N1c2ccccc2CCc2ccc(NC(=O)c3ccccc3)cc21, which “% Inhibition @ 10 uM” value is on record?
A: -3.79%

Q: Which “% Inhibition @ 10 uM” value does the source give for OC1CCCN(Cc2ccc(Cl)c(Cl)c2)C1 (stereo not drawn) here?
A: 1.4%

Q: Which “% Inhibition @ 10 uM” value does the source give for O=C(NCCN1CCOCC1)c1cc2n(n1)C(C(F)(F)F)CC(c1ccc(F)cc1)N2 (stereo not drawn) here?
A: -5.98%

Q: With CCOc1ccccc1CNCc1c(C(=O)O)n(Cc2ccc(F)cc2)c2cc(OC)ccc12 as the compound, how does the “% Inhibition @ 10 uM” value read?
A: 2.06%

Q: Which “% Inhibition @ 10 uM” value does the source give for Cc1cc(C)cc(Oc2nc3c(C)cccn3c(=O)c2/C=C(\C#N)S(=O)(=O)c2ccccc2)c1 here?
A: 5.21%

Q: Which “% Inhibition @ 10 uM” value does the source give for NS(=O)(=O)c1cc(C(=O)O)ccc1F here?
A: -1.99%

Q: With Cc1ccc(OCCn2cc(/C=C/C(=O)O)c3ccccc32)cc1 as the compound, how does the “% Inhibition @ 10 uM” value read?
A: -3.06%

Q: With CN(C)c1ccnc2sc3c(=O)n(-c4ccc(Cl)cc4)cnc3c12 as the compound, how does the “% Inhibition @ 10 uM” value read?
A: -0.591%

Q: For Cc1ccccc1-c1nc(NC(=O)CSc2nnc3ccccn23)ns1, which “% Inhibition @ 10 uM” value is on record?
A: 0.628%

Q: Which “% Inhibition @ 10 uM” value does the source give for CCc1nnc(NC(=O)C2CCC(C/N=c3/c(N4CCC(C)CC4)c(O)c3=O)CC2)s1 (stereo not drawn) here?
A: 5.91%
